Among all 71,000 compounds or so, about 1,800 (2.5%) were called active. The inconclusive results got no clear call from the source; some entries with a clear call stand among them for comparison. Calls follow the shape of the dose curve; as a rule, active = well fitted activation curve with a large enough effect in the signal ratio, with a control signal flat (not every such curve was filed as active); inconclusive = small, poorly fitted or top-dose-only effect, or effect the other way, or a change in a side signal; inactive = flat fitted curve, though single readings scatter; the % refers to the signal ratio. Where the call is inconclusive, the potency comes from a doubtful curve fit.
Assay: Cell signaling CRE-BLA (Fsk stim); as to activity change, negative = inhibition: % of control where 0% means no effect
Conditions: CHO CRE-bla reporter (cAMP response element driving beta-lactamase), forskolin EC10, beta-lactamase ratio; activity change, negative = inhibition: at 38.2 µM (top of the series) unless noted
In short: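 Cells were plated overnight at 37 °C, exposed to compound titrations plus EC10 NKH 477 for 3 h, then given CCF4 dye for 2 h at room temperature. Blue/green (460/530 nm) ratio was converted to %Activity and AC50 values calculated.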
Potency is read from the fitted curve at half-maximal effect; tags tell the direction and shape of the fitted curve.

| SMILES | Potency | activity change, negative = inhibition |
| --- | --- | --- |
| CCn1cc(C(=O)NCc2ccco2)c2cc(OC)c(OC)cc2c1=O | inconclusive: 2 µM [rising, partial curve] | – |
| CCOc1ccc(OCC)c(NC(=O)C2CCCN(c3ncccn3)C2)c1 (centres undefined) | – | inconclusive: 25.8% |
| COC(=O)c1ccc(C(NC(=O)OCc2ccccc2)/C(C)=C/[C@@H](C)C(=O)NCCO)cc1 (some centres undefined) | – | inactive: -10.2% |
| CCN(C(=O)Cc1cccs1)c1nnc(-c2cc(OC)c(OC)c(OC)c2)s1 | inconclusive: 12.6 µM [rising, partial curve] | – |
| CC1CN(C(=O)Nc2ccc3snnc3c2)c2ccccc21 (centres undefined) | – | inconclusive: -19.3% |
| N#CC1=C(N)Oc2c(oc(CO)cc2=O)C12C(=O)Nc1ccc(Cl)cc12 (centres undefined) | – | inactive: -7.03% |
| O=C(CSc1ccc2nnc(-c3ccncc3)n2n1)Nc1ccc2c(c1)OCO2 | inconclusive: 10 µM [rising, single point] | – |
| CCN(CC)c1ccc(NC(=O)CN2CCN(c3nc(C)cc(C)n3)CC2)cc1 | inconclusive: 0.158 µM [falling, full curve, poor fit] | – |
| O=[N+]([O-])c1nccn1C[C@H](O)CN1CCCCC1 | – | inactive: 5.87% [at 7.6 µM] |
| CN(C)S(=O)(=O)c1ccc(NC(=O)c2ccccn2)cc1 | – | inactive: -2.6% |
| CCCOc1ccc(NC(=O)C2CC(=O)N3CCCN=C3S2)cc1 (centres undefined) | – | inactive: 24.4% |
| COc1ccc(C(=O)c2coc3ccc(O)c(CN4CCCC4)c23)cc1 | – | inactive: -8.51% |
| COC(=O)c1ccc(CSc2nc3c(c(=O)n2-c2ccccc2)SCC3)o1 | inconclusive: 10 µM [rising, partial curve] | – |
| O=C(CCN1CCN(CCO)CC1)Nc1ccc(F)c(F)c1 | – | inconclusive: 3.52% [at 7.6 µM] |
| C=CCO[C@@H](Cn1ccnc1)c1ccc(Cl)cc1Cl | – | inactive: 5.24% [at 17.1 µM] |
| C=CCNC(=O)CCCOc1cccc(C)c1 | inconclusive: 1.26 µM [falling, partial curve] | – |
| COc1ccc(-c2nnc3sc(C4CCCCC4)nn23)cc1OC | inconclusive: 0.794 µM [rising, partial curve] | – |
| C=CCSc1nc(O)c(CC)c(=O)n1C(C)CC (centres undefined) | – | inconclusive: 15.8% [at 7.6 µM] |
| C1=CC2C3C=CC(C3)C2C1 (centres undefined) | – | inconclusive: -14.5% |
| Nc1c(C(=O)NCc2ccco2)nnn1-c1ccccc1 | – | inconclusive: -14.6% |
| CCOC(=O)c1c(NC(=O)COC(=O)Cn2cnc3ccccc32)sc(C)c1C | inconclusive: 12.6 µM [rising, single point] | – |

| SMILES | Potency | activity change, negative = inhibition |
| --- | --- | --- |
| O=C(COC(=O)C1CCCCC1C(=O)N1CCc2ccccc21)NCc1ccco1 (centres undefined) | – | inactive: -0.205% |
| CN(C)c1ncc2nc(-c3ccc(F)cc3)c(=O)n(C3CC3)c2n1 | active: 2 µM | – |
| CCOC(=O)C1CCCN(C(=O)c2cn(C)c(=O)c3cc(OC)c(OC)cc23)C1 (centres undefined) | inconclusive: 12.6 µM [rising, partial curve] | – |
| Cc1cc(C)c(C#N)c(SCC(=O)c2cccs2)n1 | inconclusive: 12.6 µM [rising, single point] | – |
| Cc1cc(C)n2nc(Nc3ccccc3)cc2n1 | – | inactive: 8.94% |
| CCC(=O)N1C(C(=O)N2CCCC2)CSC1c1ccc(OC)cc1 (centres undefined) | – | inactive: 0.436% |
| Cc1ccc(Cn2c(=N)c(C(=O)NCc3ccco3)cc3c(=O)n4ccccc4nc32)cc1 | – | inconclusive: 17.6% |
| Cc1ccc(P(=O)(O)c2ccc(C)cc2)cc1 | – | inconclusive: 6.19% [at 7.6 µM] |
| CCn1c(=O)n(CC(=O)Nc2cc(OC)ccc2OC)c(=O)c2ccccc21 | inconclusive: 10 µM [rising, single point] | – |
| NC(N)=N/N=C(/c1ccccc1)c1ccc(O)cc1O | – | inactive: -9.04% [at 7.6 µM] |
| COc1ccc(CC(=O)Nc2ccc(-c3noc(COc4ccccc4C)n3)cc2)cc1 | – | inactive: -18.3% |
| COC(=O)C1=C(C)NC2=C(C(=O)c3ccccc32)C1c1ccc(-c2ccc(C(=O)O)cc2)o1 (centres undefined) | active: 0.398 µM | – |
| Cc1ccccc1Nc1nc(N)nc(COC(=O)c2cccn2C)n1 | inconclusive: 10 µM [rising, single point] | – |
| CC(C)(C)NC(=O)C(c1ccncc1)N(C(=O)c1csnn1)C1CC1 (centres undefined) | – | inactive: -9.09% |
| O=C(c1ccncc1)N1CCC2(CCN(Cc3nccs3)CC2)CC1 | – | inactive: 1.23% |
| C[Si](C)(c1ccc(C(=O)O)cc1)c1ccc(C(=O)O)cc1 | – | inactive: 0.734% [at 7.6 µM] |
| CCOC(=O)c1sc2nc(N3CCOCC3)c3c(c2c1N)CCN(C)C3 | – | inactive: 9.26% |
| COc1ccc(-n2c(=O)c(-c3ccccc3)nc3cnc(N4CCOCC4)nc32)cc1 | active: 3.16 µM | – |
| COc1cc(NC(=O)c2ncn[nH]2)cc(OC)c1OC | – | inactive: 14.9% |
| COc1ccc(N(CC(=O)Nc2cccc(OC)c2)S(=O)(=O)c2c(C)nn(C)c2C)cc1 | – | inactive: -12.2% |
| CCOC(=O)C(C)Sc1nnc(CNC(=O)c2ccc(OC)cc2)n1C1CCCCC1 (centres undefined) | – | inconclusive: -3.89% |

| SMILES | Potency | activity change, negative = inhibition |
| --- | --- | --- |
| Cc1cccc(N2CCN(C(=O)c3cn(C)c(=O)c4c3c3ccccc3n4C)CC2)c1C | – | inconclusive: -3.91% |
| O=C(NC1CCCCC1)c1cc2nc3c(c(C(F)(F)F)n2n1)CCCC3 | active: 12.6 µM | – |
| Cc1cc(C)c2cc(CN(CCO)Cc3nnnn3Cc3ccccc3)c(=O)[nH]c2c1 | – | inconclusive: -22% |
| COCCNC(=O)CCSCc1ccccc1F | – | inconclusive: 5.74% |
| CCCCCn1c(=O)[nH]c2cc(C(=O)NCc3ccc4c(c3)OCO4)ccc2c1=O | – | inactive: -5.38% |
| CCOC(=O)Nc1ccc2c(c1)N(C(=O)N(C)C)c1ccccc1CC2 | – | inconclusive: 30.7% [at 7.6 µM] |
| COC(=O)c1ccccc1NC(=O)CSc1nc(O)cc(=O)n1C1CCCC1 | inconclusive: 12.6 µM [rising, single point] | – |
| Cn1c2ccccc2c2c(C(=O)O)cn(C3CCCC3)c(=O)c21 | – | inactive: 1.94% |
| CS(=O)(=O)N1CCC[C@@]2(CCN(c3ccccn3)C2)C1 | – | inactive: 0.874% |
| COc1cc(C(=O)OCC(=O)NC2CCCC2)cc(NC(=O)c2ccco2)c1OC | – | inconclusive: 23.7% |
| O=C(CN1C(=O)NC2(CCCCCCC2)C1=O)N1CCOCC1 | – | inconclusive: -6.67% |
| CCOc1cc2[nH]c(=O)n(CC3CCC(C(=O)NCCCOC)CC3)c(=O)c2cc1OCC (centres undefined) | – | inactive: -5.93% |
| COc1ccc(C2C(C(=O)c3sc(C)nc3C)=C(O)C(=O)N2CCCn2ccnc2)cc1 (centres undefined) | – | inconclusive: 11.9% |
| C=CCNc1ncnc2c1cnn2-c1ccc(C)cc1C | – | inactive: -3.46% |
| N#Cc1nc(-c2ccc(F)cc2)oc1NCc1cccc2c1OCO2 | active: 10 µM | – |
| CCOC(=O)c1ccc(NS(=O)(=O)c2c(C)n(C)c(=O)n(C)c2=O)cc1 | – | inconclusive: 2.7% |
| CC(C)(C)c1ccc(O)c(CN(Cc2cc(C(C)(C)C)ccc2O)c2ccccc2)c1 | – | inconclusive: 18.2% [at 7.6 µM] |
| O=c1cc(-c2ccccc2)oc2cc(O)c(O)c(O)c12 | – | inactive |
| CCS(=O)(=O)NCCCc1ccccc1 | – | inconclusive: 1.86% |
| CCOCCCNC(=O)C(C)NS(=O)(=O)c1ccc(C)cc1 (centres undefined) | – | inconclusive: -19.3% |
| Cc1cc(C)c2nc(N)sc2c1 | – | inactive: -9.08% |

| SMILES | Potency | activity change, negative = inhibition |
| --- | --- | --- |
| CS(=O)(=O)Nc1cccc(-c2nc(NCc3cccnc3)c3ccccc3n2)c1 | active: 3.98 µM | – |
| c1ccc(Nc2ncnc3c2oc2ccccc23)cc1 | – | inconclusive: 27% |
| COCCNc1ncnc2ccc(-c3cccc(NS(C)(=O)=O)c3)cc12 | – | inconclusive: 19.6% |
| COC(=O)c1cc(S(=O)(=O)n2nc(C)cc2C)c(Cl)cc1Cl | – | inactive: -3.35% |
| N#Cc1cc2c(nc1SCc1ccncc1)CCC2 | – | inactive: 12% |
| COc1ccc2c(c1)C1CC(C)(NC(=O)C1C(=O)c1ccccc1)O2 (centres undefined) | – | inconclusive: -22.2% |
| CCCOC(=O)c1ccc(Nc2cc(C)nc3ncnn23)cc1 | inconclusive: 10 µM [rising, partial curve] | – |
| COc1cc(C(=O)Nc2cc(C)c(OCC(=O)N3CCOCC3)c(C)c2)cc(OC)c1OC | inconclusive: 12.6 µM [rising, partial curve] | – |
| CCn1c(=O)cc(SCC(=O)NCc2ccccn2)c2ccccc21 | active: 7.94 µM | – |
| CCS(=O)(=O)Nc1ccc(Cc2ccncc2)cc1 | – | inconclusive: -1.26% |
| CC(=O)N1CCN(c2ccc(Oc3nc(-c4ccccc4)nc4ccccc34)cc2)CC1 | – | inactive: 1.21% |
| Cc1ccc(C(=O)N2CCN(C(=O)CN3CCOCC3)C2)cc1 | – | inconclusive: 31% [at 7.6 µM] |
| CO[C@@H]1C=CO[C@]2(C)Oc3c(C)c(O)c4c(O)c(c(C=NN5CCN(C)CC5)c(O)c4c3C2=O)NC(=O)C(C)=CC=C[C@H](C)[C@H](O)[C@H](C)[C@H](O)[C@H](C)[C@H](OC(C)=O)[C@H]1C | – | inactive: -5.89% [at 17.1 µM] |
| O=C(CCc1ccc(S(=O)(=O)N2CCCCC2)cc1)c1nnc(-c2ccccc2)o1 | inconclusive: 3.98 µM [rising, single point] | – |
| N#CCSc1nnc(Cc2cccc3ccccc23)n1C1CCCCC1 | – | inactive: -6.78% |
| CCOC(=O)c1ccc(NS(=O)(=O)c2ccc3[nH]c(=O)[nH]c3c2)cc1 | – | inconclusive: -18% |
| O=C1C2C3C=CC(CO)(O3)C2C(=O)N1c1ccccc1-c1ccccc1 (centres undefined) | inconclusive: 1 µM [falling, single point] | – |
| CC1C2CC(CC1(C)C)N(C(=O)Nc1ccc3nccnc3c1)C2 (centres undefined) | – | inconclusive: 20.9% |
| COC(=O)c1cc2c(=O)n3ccccc3nc2n(Cc2cccnc2)c1=N | – | inactive: 14.7% |
| CCOC(=O)C1CCN(S(=O)(=O)c2ccc(-n3cnnn3)c(C)c2)CC1 | inconclusive: 5.01 µM [falling, single point] | – |
| CCOC(=O)N1CCC(Nc2nc3ccccc3nc2NS(=O)(=O)c2ccc(Cl)cc2)CC1 | inconclusive: 2 µM [rising, full curve, poor fit] | – |
